{
  "source": "PubChem BioAssay AID485294",
  "about": "(National Center for Advancing Translational Sciences (NCATS), 2010)",
  "note": "Out of some 370,000 compounds screened, about 150 (0.041%) were called active. Inconclusive results, whose numbers are uncertain, are shown with a selection of clear calls. The call rests on the fitted dose curve; in most records, active means well fitted inhibition curve with a large enough effect; inconclusive means small, poorly fitted or top-dose-only effect; inactive means flat fitted curve, though single readings scatter. Potencies of inconclusive entries are left out as doubtful fits. Potency means the concentration at half of the fitted maximal effect; tags describe the fitted curve by direction and shape.",
  "data": [
    {"target": "Beta-lactamase (Escherichia coli (strain K12)) (UniProt P00811)", "sequence (P00811 whole entry, looked up)": "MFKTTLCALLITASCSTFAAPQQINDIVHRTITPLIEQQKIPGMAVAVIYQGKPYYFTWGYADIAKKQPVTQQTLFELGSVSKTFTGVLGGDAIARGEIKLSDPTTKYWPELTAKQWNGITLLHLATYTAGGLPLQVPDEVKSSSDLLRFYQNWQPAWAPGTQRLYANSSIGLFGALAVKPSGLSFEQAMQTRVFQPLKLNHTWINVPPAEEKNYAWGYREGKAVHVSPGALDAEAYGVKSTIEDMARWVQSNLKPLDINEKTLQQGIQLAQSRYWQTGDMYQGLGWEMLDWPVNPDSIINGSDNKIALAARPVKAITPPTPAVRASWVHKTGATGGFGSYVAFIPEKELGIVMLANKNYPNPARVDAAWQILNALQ", "experiment": "qHTS Inhibitors of AmpC Beta-Lactamase (assay with detergent); further: nearly all actives have a fitted effect of over 25% in size;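 on activity change, negative = inhibition: 0% = no-compound wells and -100% = no-enzyme wells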", "settings": "AmpC hydrolysis of nitrocefin, absorbance 480 nm, 0.01% Triton; activity change, negative = inhibition: at 114 µM (top of the series)", "outline": "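20 mM phosphate pH 7.0 + 0.01% (detergent screen) or 0.0001% Triton X-100; 5.3 nM AmpC reagent; cpd preinc 15 min RT; nitrocefin (800 uM stock) to start; A480 q20 s × 4 min; Activity was normalised to no-enzyme and no-compound control wells.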", "values": [
      {"smiles": "COc1ccc(Cl)cc1NC(=O)COc1ccc(S(=O)(=O)N2CCOCC2)cc1C", "Potency": "active: 28.2 µM"},
      {"smiles": "CCc1ccccc1NC(=O)CNC(=O)CCNC(=O)Nc1ccccc1", "Potency": "inconclusive [inhibitor, full curve, poor fit]"},
      {"smiles": "N#Cc1nc(COc2ccc(Cl)cc2Cl)oc1N1CCOCC1", "activity change, negative = inhibition": "inactive: -13.8%"},
      {"smiles": "O=C(Cc1c(F)cccc1Cl)Nc1ccccn1", "Potency": "inconclusive [inhibitor, partial curve, poor fit]"},
      {"smiles": "COCc1cc(C)nc(N/N=C/c2ccc(Cl)c(Cl)c2)c1C#N", "Potency": "inconclusive [inhibitor, full curve, poor fit]"},
      {"smiles": "CS(=O)(=O)c1ccc(C(=O)Nc2ccc(-c3nc4ccccc4[nH]3)cc2)cc1", "Potency": "inconclusive [inhibitor, partial curve, poor fit]"},
      {"smiles": "Cc1cc(NC(=O)Cn2c(=O)n(Cc3ccccc3)c(=O)c3ccccc32)no1", "Potency": "inconclusive [inhibitor, single point]"},
      {"smiles": "O=C(O)CCCNc1cc(N2CCC3(CC2)OCCO3)c2noc3c2c1C(=O)c1ccccc1-3", "activity change, negative = inhibition": "inactive: -13.7%"},
      {"smiles": "COc1ccc(CNC(=O)c2oc3ccc(S(=O)(=O)N4CCOCC4)cc3c2C)cc1", "Potency": "inconclusive [inhibitor, full curve, poor fit]"},
      {"smiles": "CC(OC(=O)/C=C/c1ccco1)C(=O)NC1CCCCC1C", "note": "(stereo not given)", "Potency": "inconclusive [inhibitor, full curve, poor fit]"},
      {"smiles": "O=C1NC(=O)N(CCNc2ncc(C(F)(F)F)cc2Cl)C(=O)C1Cc1ccc(Cl)cc1", "note": "(stereo not given)", "Potency": "inconclusive [inhibitor, partial curve, poor fit]"},
      {"smiles": "Cc1ccc2c(c1)N(C(=O)CCC(=O)NCc1ccccc1)CC(C)O2", "note": "(stereo not given)", "Potency": "inconclusive [inhibitor, partial curve, poor fit]"},
      {"smiles": "CCOC(=O)C1(C(=O)O)NC(=O)CC1c1ccccc1", "note": "(stereo not given)", "Potency": "inconclusive [inhibitor, full curve, poor fit]"},
      {"smiles": "Cc1c(C(=O)NCc2cccnc2)oc2ccc(S(=O)(=O)N3CCC4(CC3)OCCO4)cc12", "Potency": "inconclusive [inhibitor, full curve, poor fit]"},
      {"smiles": "COc1ccc(/C=C(\\C#N)C(=O)OCC(=O)Nc2c(C)cccc2C)cc1", "activity change, negative = inhibition": "inactive: -5.95%"},
      {"smiles": "COc1cccc(C(=O)Oc2ccc(/C=N/Nc3ccc(C(=O)O)cc3)cc2OC)c1", "activity change, negative = inhibition": "inactive: -13%"},
      {"smiles": "c1ccc2oc(-c3[nH]ncc3CN3CCSCC3)cc2c1", "activity change, negative = inhibition": "inactive: 4.41%"},
      {"smiles": "O=C(CCCNC(=O)c1ccc(Cl)cc1)NCc1ccccc1Cl", "Potency": "inconclusive [inhibitor, partial curve, poor fit]"},
      {"smiles": "COc1ccc(NS(=O)(=O)c2cc(NC(=O)c3cccs3)ccc2N2CCOCC2)cc1", "activity change, negative = inhibition": "inactive: -5.08%"},
      {"smiles": "CCOC(=O)c1sc(NC(=O)CSCc2c(C)noc2C)nc1C", "activity change, negative = inhibition": "inactive: 2.77%"},
      {"smiles": "Cc1nn(C)cc1S(=O)(=O)N1CCN(c2ccccc2F)CC1", "Potency": "inconclusive [inhibitor, partial curve]"},
      {"smiles": "CCOc1ncccc1C(=O)Nc1cc(S(=O)(=O)N2CCCCC2)ccc1OC", "Potency": "inconclusive [inhibitor, partial curve, poor fit]"},
      {"smiles": "OC(CC#CCN1CCOCC1)(c1ccccc1)c1ccccc1", "Potency": "inconclusive [inhibitor, partial curve, poor fit]"},
      {"smiles": "COc1ccccc1NC(=O)CSc1nc(N)cc(N)n1", "Potency": "inconclusive [inhibitor, single point]"},
      {"smiles": "Ic1ccccc1CN[C@@H]1C2CCN(CC2)[C@@H]1C(c1ccccc1)c1ccccc1", "Potency": "inconclusive [inhibitor, full curve]"},
      {"smiles": "COc1ccc(OC)c(N)c1", "activity change, negative = inhibition": "inactive: -15.1%"},
      {"smiles": "COc1ccccc1N1CCN(C(=O)CSc2nnnn2C2CC2)CC1", "Potency": "inconclusive [inhibitor, partial curve]"},
      {"smiles": "COc1cccc(CN2CCN(C(c3ccccc3)c3ccccc3)CC2)c1O", "activity change, negative = inhibition": "inactive: -0.218%"},
      {"smiles": "O=C(Nc1ccc(F)cc1)c1cccn1-c1nnc(N2CCCCC2)s1", "activity change, negative = inhibition": "inactive: 2.23%"},
      {"smiles": "Cc1cc(C(=O)c2ccc(C(C)(C)C)cc2)c(NC(=O)CCl)s1", "Potency": "inconclusive [inhibitor, single point]"},
      {"smiles": "CC1CCCC(C)N1CCCNC(=O)Cn1cc2c(n1)CCCC2", "note": "(stereo not given)", "Potency": "inconclusive [inhibitor, full curve, poor fit]"},
      {"smiles": "Cc1ccc(-c2ccc3nnc(SCC(N)=O)n3n2)cc1", "activity change, negative = inhibition": "inactive: -10%"},
      {"smiles": "Cc1cccc(N2CCN(Cc3nc(-c4ccc(F)cc4F)oc3C)CC2)n1", "activity change, negative = inhibition": "inactive: 6.73%"},
      {"smiles": "Cc1c(C)c2c(OCC(=O)N3CCC[C@H]3C(=O)O)cc3c(c2oc1=O)CCC(C)(C)O3", "Potency": "inconclusive [inhibitor, partial curve, poor fit]"},
      {"smiles": "Cc1ccc(O)c(-n2nc3ccccc3n2)c1", "activity change, negative = inhibition": "inactive: -3.58%"},
      {"smiles": "CCCCCCN1C=C/C(=C\\C=C(C#N)C#N)c2ccccc21", "Potency": "inconclusive [inhibitor, partial curve, poor fit]"},
      {"smiles": "COc1ccc(OCC(=O)Nc2ccc3c(c2)nc(CCN2CCCCC2)n3C)cc1", "Potency": "inconclusive [inhibitor, full curve, poor fit]"},
      {"smiles": "O=C(O)CCNS(=O)(=O)c1ccccc1", "Potency": "inconclusive [inhibitor, full curve, poor fit]"},
      {"smiles": "Cc1ccc(NC(=O)CN(C)C(=O)COC(=O)C2=COCCO2)cc1", "Potency": "inconclusive [inhibitor, single point]"},
      {"smiles": "CC(=O)Nc1nonc1-c1nnc(SCc2ccc(Cl)cc2)n1C", "activity change, negative = inhibition": "inactive: 3.31%"},
      {"smiles": "CCOc1ccc(C(C)=O)cc1COC(=O)C1=COCCO1", "Potency": "inconclusive [inhibitor, full curve]"},
      {"smiles": "O=C(/C=C/c1ccco1)NC(=S)Nc1nc(-c2ccc(Cl)cc2)cs1", "activity change, negative = inhibition": "inactive: -11.8%"},
      {"smiles": "CCOC(=O)c1cc(-c2ccccc2)n(CCC(=O)NC(C)CC)c1C", "note": "(stereo not given)", "Potency": "inconclusive [inhibitor, full curve, poor fit]"},
      {"smiles": "Clc1ncnc2scc(C3COc4ccccc4O3)c12", "note": "(stereo not given)", "activity change, negative = inhibition": "inactive: 4.23%"},
      {"smiles": "Cc1ccc(N(C)S(=O)(=O)c2ccc(-c3cc(C)no3)s2)cc1", "Potency": "inconclusive [inhibitor, partial curve, poor fit]"},
      {"smiles": "CCN1CCN(Cc2cc(=O)oc3cc(C)cc(C)c23)CC1", "Potency": "inconclusive [inhibitor, single point]"},
      {"smiles": "CCn1c(SCc2ccccc2Cl)nc(=O)c2c(C(=O)OC)cc(C3CC3)nc21", "activity change, negative = inhibition": "inactive: 18.9%"},
      {"smiles": "C/C(=N\\NC(=O)Cc1ccc([N+](=O)[O-])cc1)c1cccnc1", "Potency": "inconclusive [inhibitor, full curve]"},
      {"smiles": "c1ccc2nc(-c3ccc(-n4ccnc4)cc3)ccc2c1", "activity change, negative = inhibition": "inactive: -13%"},
      {"smiles": "Cc1ccc(-n2c(C)nn(CC#N)c2=O)cc1", "Potency": "inconclusive [inhibitor, single point]"},
      {"smiles": "O=C(c1ccccc1)N1CCN(S(=O)(=O)c2cccc(NS(=O)(=O)c3ccccc3)c2)CC1", "Potency": "inconclusive [inhibitor, single point]"},
      {"smiles": "COc1ccc(-c2nc(C#N)c(NCCc3ccccc3)o2)cc1", "Potency": "inconclusive [inhibitor, partial curve, poor fit]"},
      {"smiles": "CCn1nnnc1SCC(=O)N1N=C(c2cccs2)CC1c1cccs1", "note": "(stereo not given)", "activity change, negative = inhibition": "inactive: 0.287%"},
      {"smiles": "CC1=NN(c2ccccc2)C(=O)/C1=C\\c1cc(C)n(-c2cccnc2)c1C", "activity change, negative = inhibition": "inactive: 0.0576%"},
      {"smiles": "O=c1[nH]cnc2c1c(-c1ccccc1)cn2-c1cccc(Cl)c1", "activity change, negative = inhibition": "inactive: -11.7%"},
      {"smiles": "O=C(COc1ccc(Cl)cc1)OCc1csc(Nc2ccccc2)n1", "Potency": "inconclusive [inhibitor, single point]"},
      {"smiles": "CCN1CCN(c2ncnc3c2nnn3Cc2ccccc2)CC1", "Potency": "inconclusive [inhibitor, partial curve, poor fit]"},
      {"smiles": "CC(C)N1C(=S)SC2CS(=O)(=O)C=C21", "note": "(stereo not given)", "Potency": "inconclusive [inhibitor, partial curve, poor fit]"},
      {"smiles": "C/C(=N\\NC(=O)c1ccc(F)cc1)c1ccc(NC(=O)Cc2ccccc2)cc1", "Potency": "inconclusive [inhibitor, partial curve, poor fit]"},
      {"smiles": "O=C(Nc1ccccc1Cl)Oc1ccc(-c2ccccc2)cc1", "activity change, negative = inhibition": "inactive: 1.46%"},
      {"smiles": "O=C(Oc1ccccc1)Oc1ccc2c(c1)oc(=O)c1ccccc12", "Potency": "inconclusive [inhibitor, full curve]"},
      {"smiles": "Cc1ccc2[nH]c(=O)c(CN(Cc3cccs3)Cc3nnnn3Cc3ccccc3)cc2c1", "Potency": "inconclusive [inhibitor, partial curve, poor fit]"},
      {"smiles": "N#CC1=C(N)OC2=C(C(=O)CCC2)C1c1ccc(OC(=O)N2CCOCC2)cc1", "note": "(stereo not given)", "Potency": "inconclusive [inhibitor, partial curve]"},
      {"smiles": "CCC(=O)Nc1nc(C)c(C(=O)N2CCCCC2)s1", "Potency": "inconclusive [inhibitor, partial curve]"},
      {"smiles": "Clc1ccc(CCNC(c2nnc(-c3ccccc3)o2)c2ccccc2Cl)cc1", "note": "(stereo not given)", "activity change, negative = inhibition": "inactive: 12.8%"},
      {"smiles": "CCc1nn(C(C)C(=O)NCCc2ccc(OC)c(OC)c2)c(=O)c2cc3occc3n12", "note": "(stereo not given)", "Potency": "inconclusive [inhibitor, full curve, poor fit]"},
      {"smiles": "Cc1ccc(SC[C@H](CC(C)C)N2CCN(CCc3ccccc3)CCC2=O)cc1", "activity change, negative = inhibition": "inactive: 1.95%"},
      {"smiles": "Cc1cccn2c(=O)c3cc(C(=O)NC4CCCCC4C)n(C)c3nc12", "note": "(stereo not given)", "activity change, negative = inhibition": "inactive: -13.1%"},
      {"smiles": "CCOC(=O)N1CCC(NC(=O)CS(=O)(=O)Cc2nc(-c3cccc(OC)c3)oc2C)CC1", "Potency": "inconclusive [inhibitor, partial curve, poor fit]"},
      {"smiles": "O=C(COc1nncc2ccccc12)NCCC1=CCCCC1", "Potency": "inconclusive [inhibitor, full curve, poor fit]"}
    ]}
  ]
}
